From patent US10869844B2, “Methods for the treatment of depression” (Janssen Pharmaceutica NV, priority 2014, dated 2020)

Assays:
adult subjects with TRD = conditions: after the 1st infusion (up to Day 4)
[1] = test system: adult subjects with treatment resistant depression; type: in vivo, human; conditions: ketamine subjects; Days 3 or 4, 8, 15 and 29

Row | SMILES | Reduction in MADRS total score, Val/Val vs Met carriers (adult subjects with TRD) | Remit rates, Met carriers vs Val/Val [1]
1 | CN[C@]1(c2ccccc2Cl)CCCCC1=O.Cl [Esketamine, (S)-2-(2-chlorophenyl)-2-(methylamino)cyclohexanone hydrochloride] | Larger reductions in MADRS total score were observed in Val/Val subjects as compared to Met carriers | 
2 | CNC1(c2ccccc2Cl)CCCCC1=O (racemic) [Ketamine, ketamine] |  | remit rates were higher in Met carriers than in Val/Val subjects, except on Day 3 or Day 4
